The campaign covered roughly 48,000 compounds. About 450 (0.94%) were called active. Inconclusive results (about 19%) are left out. The call rests on the fitted dose curve; in most records, active means well fitted inhibition curve with a large enough effect; inconclusive means small, poorly fitted or top-dose-only effect; inactive means no such curve, though single readings can be large or run the other way. Some of the results follow.
Assay: Primary qHTS for Identification of Small Molecule Inhibitors of Huntingtin Promoter Activity; further: nearly all actives have a fitted effect of over 50% in size
Settings: HEK293 HTT promoter firefly luciferase reporter (activity 0% = vehicle and -100% = no light), 24 h; series mostly up to 57.5 µM; activity change, negative = inhibition: at the top concentration
Procedure, shortened: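 Firefly luciferase readout (Dual-Glo, 10 min RT) after 24 h, 37 °C compound exposure (final up to 57.5 uM) of HEK293 reporter cells cultured 24 h beforehand; PTC124 at 50 uM final as control inhibitor; activity scaled vehicle 0%, zero RLU -100%.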

SMILES | activity change, negative = inhibition
Cc1ncc(COP(=O)(O)O)c(C=O)c1O | inactive: 11.9%
CCOc1ccc(C(=O)NCc2nnnn2-c2ccc(C)c(C)c2)cc1OCC | inactive: 0.876%
Cc1cc(C)c(NC(=O)CCN2C(=O)c3ccccc3Sc3ncccc32)c(C)c1 | inactive: -11.1%
Cc1nc2cc(C(=O)NCCC3=CCCCC3)ccc2n1-c1ccc(Br)cc1 | inactive: -4.96%
Cc1ccc(-n2c(=O)c3ccc(C(=O)NCc4ccccc4Cl)cc3n(CC(=O)Nc3cccc(Cl)c3)c2=O)cc1 | inactive: -11.6%
CCc1nn(CC(=O)NCC(C)c2ccccc2)c(=O)c2cc3occc3n12 (stereo unspecified) | inactive: 1.38%
COC(=O)c1cc2c(cc1NC(=O)c1cnn(-c3ccccc3)c1-n1cccc1)OCO2 | inactive: 10.8%
CCOC(=O)CNC(=O)CSc1cn(CC(=O)N2CCCCCC2)c2ccccc12 | inactive: -2.52%
CCCCCNC(=O)c1ccc2c(c1)ncn2-c1cccc(C)c1 | inactive: -23.8%
O=C1COc2ccc(-c3cc(-c4ccc(Cl)cc4)c4c(n3)-c3ccccc3OC4)cc2N1 | inactive: -11.9%
Cc1cccc(C(=O)Nc2nnc(S(=O)(=O)N(C)Cc3ccc(Cl)cc3)s2)c1 | inactive: -17.2%
COc1cccc(C2CC(=O)Nc3cc(OC)c(OC)c(OC)c32)c1OC(C)C (stereo unspecified) | inactive: 9.93%
Cc1cccc(Cn2c(=O)n(CC3CCC(C(=O)NC(C)C)CC3)c(=O)c3sccc32)c1 (stereo unspecified) | inactive: -7.59%
CSc1ccc(CCNC(=O)C2=C(C)C(=O)OC23CCCCC3)cc1 | inactive: -16.6%
CCC1NC(=O)c2cc(S(N)(=O)=O)c(Cl)cc2N1 (stereo unspecified) | inactive: 4.57%
COc1ccccc1CN1CCC(CNS(=O)(=O)c2cc(-c3onc(C)c3C)ccc2OC)CC1 | inactive: -13.4%
Cc1nn(-c2ccccc2)c(OC(=O)c2cccc(Br)c2)c1S(=O)(=O)c1ccccc1 | inactive: -17.7%
COC(=O)c1ccc(OCC2c3cc(OC)c(OC)cc3CCN2C(=O)c2ccccc2C)cc1 (stereo unspecified) | inactive: -27.8%
CC(=O)Oc1ccc(C2(c3ccc(OC(C)=O)cc3)C(=O)Nc3ccccc32)cc1 | inactive: -14.4%
Cc1ccc(-c2nnc(Nc3ccc(Br)cc3)c3ccccc23)cc1S(=O)(=O)NCC1CCCO1 (stereo unspecified) | inactive: -24.8%
Cc1nc(N2CCCC2)c2c(C(=O)N3CCN(c4ccc(F)cc4)CC3)c(C)oc2n1 | inactive: -13%
Cc1cc(C)cc(NC(=O)c2cc(C)nc3c2c(C)nn3-c2ccccc2)c1 | inactive: -7.84%
CCOc1ccc(C2CC(=O)NC(NC(=O)c3ccc(C)cc3)=N2)cc1 (stereo unspecified) | inactive: 31.8%
COc1ccc(NC(=O)Cn2c(=O)n(CCC(C)C)c(=O)c3cccnc32)cc1Cl | inactive: -19.8%
COc1cccc(-c2nc(SCC(=O)NCC3CCCO3)c(-c3ccc(C)cc3)[nH]2)c1 (stereo unspecified) | inactive: -19.1%
CCOc1ccc(NC(=O)c2cc3c(C)nn(-c4ccccc4)c3s2)cc1 | inactive: -29.2%

— PubChem BioAssay AID1508623 (National Center for Advancing Translational Sciences (NCATS), 2021)
